Reference: the supplement of paper PMC6828730
The list shows a part of the results. Many values rest on one well or one pass, so single values are uncertain.

Experiments:
[1] = system: hiPSC-derived cardiomyocytes; assay: time to death of most cells in well after compound addition (days); higher = less cardiotoxic; conditions: screen: 1; 10 µM
[2] = system: hiPSC-derived cardiomyocytes; assay: time to death of most cells in well after compound addition (days); higher = less cardiotoxic; extreme values may be limits of the assay; conditions: 10 µM

Compound | time to death of most cells in well [1] | time to death of most cells in well ([2]; screen: 2) | time to death of most cells in well ([2]; screen: 3) | time to death of most cells in well ([2]; screen: 4)
O=C(NCc1ccccc1)c1csc(Nc2ccncn2)n1 [Thiazovivin] | 5 | 3 | > 7 | > 7
CCN(CC)CCCC(C)Nc1ccnc2cc(Cl)ccc12 (centres undefined) [Chloroquine Phosphate] | > 7 | 4.5 | > 7 | > 7
Oc1ccc(Nc2nc(-c3ccc(Cl)cc3)cs2)cc1 | 2.5 | > 7 | > 7 | > 7
Cc1cc(Nc2ncc(Cl)c(Nc3ccccc3S(=O)(=O)C(C)C)n2)c(OC(C)C)cc1C1CCNCC1 [Ceritinib (LDK378)] | 1 | 0.5 | 0.5 | 2.5
O=C1NC(=O)C(=Cc2ccc(-c3ccc(F)cc3)o2)S1 (stereo in doubt) | > 7 | > 7 | > 7 | > 7
CCc1cnn2c(NCc3ccc[n+]([O-])c3)cc(N3CCCC[C@H]3CCO)nc12 | 5 | 4.5 | 2 | 6
CN1CC[C@@H](c2c(O)cc(O)c3c(=O)cc(-c4ccccc4Cl)oc23)[C@@H]1CO | 1.5 | 1.5 | 5.5 | 4.5
CCCCOc1c(C(=O)c2c(F)cc(C)cc2F)c[nH]c2nncc1-2 | 4 | 4 | 5.5 | > 7
C[C@@H]1COCCN1c1cc(C2([S@](C)(=N)=O)CC2)nc(-c2cc[nH]c3nccc2-3)n1 | > 7 | > 7 | > 7 | > 7
O=C(NOC[C@H](O)CO)c1ccc(F)c(F)c1Nc1ccc(I)cc1F | > 7 | 3 | > 7 | > 7
Cc1ccc(-c2nn(C(C)(C)C)c3ncnc(N)c23)cc1 | > 7 | > 7 | > 7 | > 7
O=C1NCCc2[nH]c(-c3ccncc3)cc21 | 5 | 3 | 2.5 | > 7
CO[C@H]1C[C@@H]2CC[C@@H](C)[C@@](O)(O2)C(=O)C(=O)N2CCCC[C@H]2C(=O)O[C@H]([C@H](C)C[C@@H]2CC[C@H](n3cnnn3)[C@H](OC)C2)CC(=O)[C@H](C)/C=C(\C)[C@@H](O)[C@@H](OC)C(=O)[C@H](C)C[C@H](C)/C=C/C=C/C=C/1C [Zotarolimus(ABT-578)] | > 7 | > 7 | > 7 | > 7
CCc1cncnc1N1CCN(Cc2nc3ccc(C(F)(F)F)cc3[nH]2)CC1 | > 7 | > 7 | > 7 | > 7
Cc1cc(CS(=O)(=O)c2ccccc2)cc(OCc2ccc(CN3CCC[C@@H]3CO)cc2)c1 | > 7 | 3 | > 7 | > 7
Cc1[nH]c(/C=C2\C(=O)Nc3ccccc32)c(C)c1CCC(=O)O [Orantinib (TSU-68, SU6668)] | > 7 | > 7 | > 7 | > 7
COc1ccc(-c2ccc3ncc4c(c3c2)n(-c2ccc(N3CCNCC3)c(C(F)(F)F)c2)c(=O)n4C)cn1 | 1 | 0 | 0.5 | 3
CC(=O)Nc1cccc(-n2c(=O)n(C3CC3)c(=O)c3c(Nc4ccc(I)cc4F)n(C)c(=O)c(C)c32)c1 | > 7 | 5 | > 7 | > 7
Cn1ncc(Cl)c1-c1cc(C(=O)N[C@H](CN)Cc2ccc(F)c(F)c2)oc1Cl | 4.5 | 4 | > 7 | > 7
Cc1ccc(-n2nc(C(C)(C)C)cc2NC(=O)Nc2ccc(OCCN3CCOCC3)c3ccccc23)cc1 [Doramapimod (BIRB 796)] | > 7 | > 7 | > 7 | > 7
Cn1cc(-c2[nH]c3cc(NC(=O)[C@H](N)C4CCCCC4)cc4c3c2C=NNC4=O)cn1 | > 7 | > 7 | > 7 | 6.5
Oc1c(F)cc(-c2cnccc2-c2ccc(N3CCOCC3)cc2)cc1F | 2.5 | 2 | > 7 | > 7
CS(=O)(=O)N1CCN(Cc2cc3nc(-c4cccc5[nH]ncc45)nc(N4CCOCC4)c3s2)CC1 [Pictilisib (GDC-0941)] | 2.5 | > 7 | > 7 | > 7
C[C@@H]1COC(Nc2ccc3ncnc(Nc4ccc(OCc5nccs5)c(Cl)c4)c3c2)=N1 [Varlitinib] | 6 | 4.5 | > 7 | > 7
O=C1NC(=O)C(c2ccccc2[N+](=O)[O-])=C1Nc1ccc(O)c(Cl)c1 | > 7 | > 7 | > 7 | > 7
O=C(c1ccc(F)c(F)c1Nc1ccc(I)cc1F)N1CC(O)([C@@H]2CCCCN2)C1 [Cobimetinib (GDC-0973, RG7420)] | 3.5 | 3 | 5 | 6
